This note sets out measurements from publication PMC7739268 (Journal of molecular biology, 2016).

The target in this assay is T1, Recombinant human BMP-6 (human, UniProt P22004 375-513).
T1 sequence (looked up): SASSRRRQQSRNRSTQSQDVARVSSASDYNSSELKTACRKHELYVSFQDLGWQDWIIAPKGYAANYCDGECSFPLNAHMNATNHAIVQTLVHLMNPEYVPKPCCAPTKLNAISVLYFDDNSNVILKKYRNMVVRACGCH
Briefly: SPR. (In general: Surface plasmon resonance follows binding to a sensor surface in real time, without labels.)

B1: ActRIIA-Fc (Fc fusion)
chain: not shown
As to B1, the binding result is recorded as “binds”.
